Laboratory results taken from PubChem BioAssay AID1345083 (National Center for Advancing Translational Sciences (NCATS), 2018).
Out of some 94,000 compounds screened, about 6,200 (6.6%) were called active. Inconclusive means that the source gave no clear call. Such entries were picked first, then a sample of the others. The call rests on the fitted dose curve; in most records, active means well fitted inhibition curve with a large enough effect; inconclusive means small, poorly fitted or top-dose-only effect; inactive means flat fitted curve, though single readings scatter. Where the call is inconclusive, the potency comes from a doubtful curve fit.
Potency means the concentration at half of the fitted maximal effect; tags describe the fitted curve by direction and shape.

Assay: Cytotoxic Profiling in HEK 293 Cell Line of Diverse Libraries Using Quantitative High-Throughput Screening; further: nearly all actives have a fitted effect of over 60% in size
Conditions: HEK 293 viability, ATP luminescence (CellTiter-Glo), 48-72 h; series mostly up to 115 µM
Procedure, shortened: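 HEK 293 cells at 250 cells/well were exposed to compounds by pintool transfer for 48 or 72 hr at 37 degree Celsius, 5% CO2. Viability was read as ATP-coupled luminescence with CellTiter-Glo after 10 min at room temperature.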
With CCOc1ccc(CN2CCC3(Cc4ccccc4CNC3=O)C2)cc1 (configuration not stated) the Potency was inconclusive: 39.8 µM [inhibitor, full curve]. With COc1cc(CNC(=O)[C@H]2CCC[C@H]2NC(=O)c2ccncc2)cc(OC)c1 the Potency was “inactive”. With CCN1CCCC1CNC(=O)CC[C@H]1NC(=O)c2ccccc2NC1=O (some centres not stated) the Potency was “inactive”. For COCCn1c(=O)c(C(=O)N2CCN(Cc3ccccc3)CC2)nc2cccnc21, the Potency was “inactive”. For CCc1nc(-c2c3n(c(=O)n(Cc4cccc(Cl)c4)c2=O)CCCC3)no1, the Potency was “inactive”. In the case of Cc1ccc([S+](=O)([O-])N2CCC(c3nn(-c4ccc(F)cc4)c(=O)[nH]3)CC2)cc1, the Potency is reported as inconclusive: 56.2 µM [inhibitor, partial curve, poor fit]. In the case of O=C(c1ccc(Cl)cc1)N1CCC2(Cc3ccccc3NC2=O)C1 (configuration not stated), the Potency is reported as inconclusive: 100 µM [inhibitor, partial curve, poor fit]. With CCNC(=O)CCc1c(C)nn(-c2ccccc2)c1Oc1ccc(F)cc1F the Potency was inconclusive: 89.1 µM [inhibitor, partial curve, poor fit]. In the case of CCn1cc(Cl)c(C(=O)N2CCc3c(nc(-c4ccccc4)[nH]c3=O)C2)n1, the Potency is reported as inconclusive: 25.1 µM [inhibitor, full curve, poor fit]. For O=C(N[C@@H]1CNCCC[C@H]1O)c1ccc(OCCN2CCCC2)cc1, the Potency was “inactive”. For O=C(c1cnc(N2CCOCC2)nc1)N1CCn2nc(C(O)C3CC3)cc2C1 (configuration not stated), the Potency was “inactive”. For CC1(c2ccccc2)N(Cc2ccccc2F)C(=O)OC12CCN(C(=O)COc1ccccc1C(N)=O)CC2 (configuration not stated), the Potency was inconclusive: 79.4 µM [inhibitor, single point]. For CCCCn1c(=O)c(C(=O)NCCCc2ccccc2)nc2cccnc21, the Potency was inconclusive: 56.2 µM [inhibitor, partial curve, poor fit]. For CC1=C[C@@H](CNC2CC2)[C@H](C(C)C)C[C@H]1Cc1nnc(-c2ccc(C)cc2)o1, the Potency was active: 50.1 µM. For N#Cc1cccc(C(=O)N2CCC(n3cc(-c4nc(C5CC5)no4)nn3)C2)c1 (configuration not stated), the Potency was inconclusive: 89.1 µM [inhibitor, single point]. In the case of COc1nc2nc(CC3CC3)n(C)c2cc1-c1cccc(NC(C)=O)c1, the Potency is reported as inconclusive: 126 µM [inhibitor, single point]. In the case of COc1ccccc1CN1CCC2(CC1)COCCN2C(=O)OCc1ccccc1, the Potency is reported as inconclusive: 112 µM [inhibitor, partial curve, poor fit]. For O=C(c1cccc(Cl)c1)N1CCCC(c2nn(-c3ccccn3)c(=O)[nH]2)C1 (configuration not stated), the Potency was “inactive”. In the case of COCC1CN(C)CC12CCN(C(=O)Cc1ccc(OC)cc1)CC2 (configuration not stated), the Potency is reported as inconclusive: 89.1 µM [inhibitor, single point]. In the case of Cn1cc(CN2C[C@@H](F)[C@@H](OCc3nc4ccccc4o3)C2)c2ccccc21, the Potency is reported as inconclusive: 112 µM [inhibitor, partial curve]. In the case of COc1ccccc1-c1nnc2ccc(C(=O)N3CCOCC3)cn12, the Potency is reported as “inactive”. In the case of Cc1cc(-n2nnnc2N2CCN(C(=O)Nc3ccc(C)c(F)c3)CC2)ccc1F, the Potency is reported as inconclusive: 79.4 µM [inhibitor, partial curve]. In the case of CSc1ccc(-c2nc3c([nH]2)CC(C)(C)CNC3=O)cc1, the Potency is reported as inconclusive: 79.4 µM [inhibitor, partial curve, poor fit]. For COc1ccc(-c2cccc(C(=O)N3CCN([S+](=O)([O-])c4ccccc4)CC3)c2)nn1, the Potency was inconclusive: 79.4 µM [inhibitor, single point]. For O=C(NCc1ccccc1)c1cnc2n1CCN(Cc1ccc3c(c1)CCO3)CC2, the Potency was inconclusive: 70.8 µM [inhibitor, partial curve]. With COc1ccc(-c2noc([C@@H]3CCCN3C(=O)COc3ccc(Cl)cc3)n2)cc1 the Potency was inconclusive: 56.2 µM [inhibitor, partial curve, poor fit]. With Cc1nnc(-c2cc(C(=O)NCc3ccco3)ccn2)n1Cc1cccnc1 the Potency was inconclusive: 112 µM [inhibitor, partial curve, poor fit]. For COc1ccc(C(=O)N2CCC(Cc3nc(-c4ccccc4)no3)CC2)cc1F, the Potency was inconclusive: 10 µM [inhibitor, full curve, poor fit]. With CC1=NS(=O)(=O)N(C)C=C1C(=O)OCc1noc(-c2ccccc2F)n1 the Potency was “inactive”. In the case of O=C(NCC(F)(F)F)c1nc2cccnc2n(C2CC2)c1=O, the Potency is reported as “inactive”. For CN(Cc1cccnc1)Cc1nc(C2(O)CCN(Cc3ccc(C(F)(F)F)cc3)CC2)cs1, the Potency was “inactive”. In the case of CN1CC2(CCCN(C3CCN(C(=O)c4cnccn4)CC3)C2)OC1=O (configuration not stated), the Potency is reported as “inactive”. In the case of COc1ccc(OC)c(CNC(=O)CC2C(=O)NCCN2CC=C(C)C)c1 (configuration not stated), the Potency is reported as “inactive”. With O=C1N(C2CCCCC2)C[C@H]2CN(Cc3cccc(Cl)c3)CCN12 the Potency was inconclusive: 100 µM [inhibitor, partial curve]. For COc1ccc(NC(=O)N2Cc3[nH]cnc3C[C@H]2c2nc(-c3ccc(F)cc3)no2)cc1, the Potency was inconclusive: 100 µM [inhibitor, partial curve, poor fit]. With c1ccc(Nc2cnc3ccc(-n4ccnc4)nn23)cc1 the Potency was inconclusive: 100 µM [inhibitor, partial curve, poor fit]. With CN(C)c1ncnc2sc3c(c12)CCN(S(=O)(=O)c1ccccc1)C3 the Potency was inconclusive: 50.1 µM [inhibitor, partial curve, poor fit]. With Cc1nnc2ccc(N3CCCN(C(=O)c4ccccc4)CC3)nn12 the Potency was “inactive”. For CC1=C[C@@H](CN2CCN(c3ccccn3)CC2)[C@H](C(C)C)C[C@H]1Cc1nnc(C)o1, the Potency was inconclusive: 44.7 µM [inhibitor, partial curve, poor fit]. In the case of CC(C)CCN1CCC2(CN[S+](=O)([O-])c3ccccc3N2)C1 (configuration not stated), the Potency is reported as inconclusive: 126 µM [inhibitor, single point]. For O=C1CCN(C(=O)[C@@H](Cc2ccccc2)NS(=O)(=O)c2cccc3cccnc23)CCOCCN1, the Potency was “inactive”. With COc1ccc(CN2Cc3cc(NC(=O)Cc4ccc(F)cc4)ccc3OC(C)C2=O)cc1 (configuration not stated) the Potency was active: 39.8 µM.
